Laboratory results published in PMC8889575.
These are yes or no findings as the source states them, for the method shown. In cells and extracts the contact can be indirect. Some results given as binding are weak or reduced against the parent protein; the word gives no strength.

Chains of the proteins cited; added tags and fusions are not shown. Lines headed by an entry give the natural chain unless they say otherwise; changes in a name come on top. A line that says so, or that is headed by a name, gives the form on record, which may keep a tag or linker. Residues count along the entry.
UniProt P09055, residues 21-798: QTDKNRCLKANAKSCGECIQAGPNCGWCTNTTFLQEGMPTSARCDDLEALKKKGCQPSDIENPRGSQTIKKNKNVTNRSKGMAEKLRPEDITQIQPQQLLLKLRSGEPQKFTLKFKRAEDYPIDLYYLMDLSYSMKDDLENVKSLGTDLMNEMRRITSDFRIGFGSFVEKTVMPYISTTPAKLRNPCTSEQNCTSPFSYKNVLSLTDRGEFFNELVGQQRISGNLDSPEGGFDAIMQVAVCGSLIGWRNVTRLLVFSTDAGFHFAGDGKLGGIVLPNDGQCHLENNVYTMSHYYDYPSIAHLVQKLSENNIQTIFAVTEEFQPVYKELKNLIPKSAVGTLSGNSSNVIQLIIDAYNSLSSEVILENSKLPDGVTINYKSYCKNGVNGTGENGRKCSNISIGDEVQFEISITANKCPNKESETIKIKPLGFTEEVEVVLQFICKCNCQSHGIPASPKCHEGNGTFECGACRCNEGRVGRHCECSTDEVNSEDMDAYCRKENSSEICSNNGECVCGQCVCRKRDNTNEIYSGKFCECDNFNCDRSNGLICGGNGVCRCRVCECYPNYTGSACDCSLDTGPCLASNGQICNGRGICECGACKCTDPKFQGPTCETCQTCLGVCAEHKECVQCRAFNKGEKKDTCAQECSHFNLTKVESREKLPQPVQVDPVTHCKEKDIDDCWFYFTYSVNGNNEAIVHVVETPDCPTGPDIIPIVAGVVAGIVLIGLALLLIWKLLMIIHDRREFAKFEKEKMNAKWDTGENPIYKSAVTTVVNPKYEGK
UniProt P78310: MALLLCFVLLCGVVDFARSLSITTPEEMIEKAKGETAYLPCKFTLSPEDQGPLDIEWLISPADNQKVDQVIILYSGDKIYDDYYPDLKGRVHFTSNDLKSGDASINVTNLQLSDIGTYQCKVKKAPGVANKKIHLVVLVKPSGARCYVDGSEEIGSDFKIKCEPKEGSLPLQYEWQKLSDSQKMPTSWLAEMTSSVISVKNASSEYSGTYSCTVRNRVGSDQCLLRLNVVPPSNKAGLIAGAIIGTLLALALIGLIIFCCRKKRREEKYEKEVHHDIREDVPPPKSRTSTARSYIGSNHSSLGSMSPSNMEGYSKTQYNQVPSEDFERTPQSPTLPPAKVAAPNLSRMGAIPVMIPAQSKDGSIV
WTCAR-GST cytoplasmic tail: residues 259-365 of P78310
AACAR-GFP (CAR T290A & S293A, non-phosphorylated mutant, GFP-tagged) (P78310, form named): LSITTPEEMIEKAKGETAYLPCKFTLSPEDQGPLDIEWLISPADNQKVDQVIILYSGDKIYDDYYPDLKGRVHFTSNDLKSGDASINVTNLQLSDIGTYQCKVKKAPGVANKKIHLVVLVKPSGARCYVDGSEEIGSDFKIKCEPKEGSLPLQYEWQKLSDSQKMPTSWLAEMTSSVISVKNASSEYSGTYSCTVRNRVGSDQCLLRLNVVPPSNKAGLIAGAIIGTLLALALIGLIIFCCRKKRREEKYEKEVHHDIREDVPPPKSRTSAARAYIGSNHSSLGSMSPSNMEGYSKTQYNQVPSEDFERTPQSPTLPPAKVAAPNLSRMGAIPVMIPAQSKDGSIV
DDCAR-GST cytoplasmic tail (T290D & S293D, phospho-mimetic) (P78310, form named): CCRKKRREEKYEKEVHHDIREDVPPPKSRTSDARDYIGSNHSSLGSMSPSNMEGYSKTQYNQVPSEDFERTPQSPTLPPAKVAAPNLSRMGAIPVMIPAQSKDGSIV
UniProt P34152: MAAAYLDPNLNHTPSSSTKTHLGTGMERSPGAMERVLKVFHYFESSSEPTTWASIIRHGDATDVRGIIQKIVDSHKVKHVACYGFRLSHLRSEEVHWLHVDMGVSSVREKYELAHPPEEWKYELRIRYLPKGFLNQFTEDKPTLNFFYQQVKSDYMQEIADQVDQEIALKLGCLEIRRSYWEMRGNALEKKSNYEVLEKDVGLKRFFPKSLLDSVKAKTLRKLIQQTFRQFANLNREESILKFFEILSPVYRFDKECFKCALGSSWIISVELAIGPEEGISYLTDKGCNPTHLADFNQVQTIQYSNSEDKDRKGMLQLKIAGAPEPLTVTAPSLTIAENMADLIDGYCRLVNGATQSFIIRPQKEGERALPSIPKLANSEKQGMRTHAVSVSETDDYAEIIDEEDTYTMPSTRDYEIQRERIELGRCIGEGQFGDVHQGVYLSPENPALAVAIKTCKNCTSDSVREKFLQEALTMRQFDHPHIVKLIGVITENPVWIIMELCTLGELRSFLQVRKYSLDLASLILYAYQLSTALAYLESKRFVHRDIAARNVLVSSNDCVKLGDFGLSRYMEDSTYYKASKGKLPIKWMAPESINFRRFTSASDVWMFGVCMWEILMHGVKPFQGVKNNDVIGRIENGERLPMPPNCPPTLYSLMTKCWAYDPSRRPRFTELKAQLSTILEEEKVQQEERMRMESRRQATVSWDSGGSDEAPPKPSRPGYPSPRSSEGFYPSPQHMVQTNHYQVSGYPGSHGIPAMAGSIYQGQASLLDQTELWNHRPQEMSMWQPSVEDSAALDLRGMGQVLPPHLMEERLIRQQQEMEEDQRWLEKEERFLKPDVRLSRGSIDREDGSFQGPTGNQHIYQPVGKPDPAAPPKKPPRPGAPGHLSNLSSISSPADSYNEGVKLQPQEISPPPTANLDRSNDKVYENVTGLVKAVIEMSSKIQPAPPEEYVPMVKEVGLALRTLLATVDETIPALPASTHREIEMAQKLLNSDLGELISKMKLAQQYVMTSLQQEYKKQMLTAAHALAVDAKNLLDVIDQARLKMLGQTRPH
UniProt Q8VI36: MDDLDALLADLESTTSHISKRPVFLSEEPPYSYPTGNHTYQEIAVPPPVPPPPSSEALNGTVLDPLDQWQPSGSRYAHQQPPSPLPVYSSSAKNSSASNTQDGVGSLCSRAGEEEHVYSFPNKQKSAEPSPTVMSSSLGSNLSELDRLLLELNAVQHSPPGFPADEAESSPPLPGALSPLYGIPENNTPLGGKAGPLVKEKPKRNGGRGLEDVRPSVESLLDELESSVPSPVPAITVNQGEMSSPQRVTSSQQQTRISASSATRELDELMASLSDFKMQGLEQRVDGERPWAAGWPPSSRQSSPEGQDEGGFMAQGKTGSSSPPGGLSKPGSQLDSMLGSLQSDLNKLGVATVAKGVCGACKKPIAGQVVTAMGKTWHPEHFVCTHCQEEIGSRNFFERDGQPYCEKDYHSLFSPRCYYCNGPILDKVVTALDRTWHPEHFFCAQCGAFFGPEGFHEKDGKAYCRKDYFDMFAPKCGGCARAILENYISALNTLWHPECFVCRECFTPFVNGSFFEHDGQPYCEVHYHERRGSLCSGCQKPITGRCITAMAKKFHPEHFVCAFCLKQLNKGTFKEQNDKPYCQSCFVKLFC

Experiments:
[1] = target: β1 integrin (mouse (endogenous in CMT 167 and LLC)) (UniProt P09055); assay: co-IP; immunoprecipitation of β1 integrins from lysates of the specified cell lines, blots probed for β1 integrin and GFP (Figure 5A); IP lysis buffer pH 7.4, 50 mM Tris, 150 mM NaCl, 1% Triton X-100, 1% NP40
[2] = target: AACAR-GFP (CAR T290A & S293A, non-phosphorylated mutant, GFP-tagged) (UniProt P78310); assay: co-IP; GFP-Trap beads on lysates of LLC and CMT cells expressing GFP-tagged proteins, 2 h at 4 °C; IP lysis buffer pH 7.4, 50 mM Tris, 150 mM NaCl, 50 mM NaF, 1 mM EDTA, 1% Triton X-100, 1% NP40; blots for FAK, paxillin, Src, GFP (Figure 5B)
[3] = target: WTCAR-GFP (coxsackie and adenovirus receptor, wild type, GFP-tagged) (UniProt P78310); assay: as above
[4] = target: DDCAR-GST cytoplasmic tail (T290D & S293D, phospho-mimetic) (UniProt P78310); assay: pull-down; GST or CAR-GST cytoplasmic tail (WT, AA, DD) on beads incubated with lysates of CMT parental cells for 3 h at 4 °C in IP buffer, washed three times, immunoblotted (Figure 5C, D); only the target purified
[5] = target: WTCAR-GST cytoplasmic tail (UniProt P78310); assay: as above

| Substance | binding [1] | binding [2] | binding [3] | binding [4] | binding [5] |
| --- | --- | --- | --- | --- | --- |
| AACAR-GFP (CAR T290A & S293A, non-phosphorylated mutant, GFP-tagged) (from UniProt P78310 20-365) (receptor) | no binding | – | – | – | – |
| Focal Adhesion Kinase (FAK) (from UniProt P34152 1-1052) (enzyme) | – | no binding | binds | binds | binds |
| WTCAR-GFP (coxsackie and adenovirus receptor, wild type, GFP-tagged) (from UniProt P78310 20-365) | binds | – | – | – | – |
| paxillin (from UniProt Q8VI36 1-591) | – | no binding | binds | binds | binds |
